Measurements reported in PubChem BioAssay AID588342 (National Center for Advancing Translational Sciences (NCATS), 2011).
In all, about 360,000 compounds went through this assay and about 25,000 (6.9%) were called active. The shares of active, inactive and inconclusive entries below differ from those in the screen. The call rests on the fitted dose curve; in most records, active means well fitted inhibition curve with a large enough effect; inconclusive means small, poorly fitted or top-dose-only effect; inactive means flat fitted curve, though single readings scatter. Where the call is inconclusive, the potency comes from a doubtful curve fit.

What follows are molecules tested against Luciferin 4-monooxygenase (Photinus pyralis) (UniProt P08659) (assay: qHTS profiling assay for firefly luciferase inhibitor/activator using purifed enzyme and Km concentrations of substrates (counterscreen for miR-21 project)). Conditions: purified FLuc, luminescence inhibition; activity change, negative = inhibition: at 57.5 µM (top of the series).
Sequence of UniProt P08659 (P08659 whole entry, looked up): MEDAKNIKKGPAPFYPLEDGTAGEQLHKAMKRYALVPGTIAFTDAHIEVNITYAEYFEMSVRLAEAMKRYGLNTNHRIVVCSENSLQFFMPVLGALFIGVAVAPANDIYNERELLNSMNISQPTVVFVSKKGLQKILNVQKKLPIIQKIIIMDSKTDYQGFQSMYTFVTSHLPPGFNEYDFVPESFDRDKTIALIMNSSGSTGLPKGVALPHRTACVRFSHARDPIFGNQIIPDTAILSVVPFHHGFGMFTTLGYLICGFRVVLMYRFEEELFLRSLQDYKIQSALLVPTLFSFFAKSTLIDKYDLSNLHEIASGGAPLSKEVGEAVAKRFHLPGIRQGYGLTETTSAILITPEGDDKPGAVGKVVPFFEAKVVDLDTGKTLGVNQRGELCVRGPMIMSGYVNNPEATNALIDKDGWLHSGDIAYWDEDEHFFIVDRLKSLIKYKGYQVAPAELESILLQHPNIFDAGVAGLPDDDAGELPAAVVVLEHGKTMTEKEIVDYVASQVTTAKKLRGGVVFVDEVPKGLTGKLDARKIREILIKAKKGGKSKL
Outline: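 Purified P. pyralis luciferase, 10 nM final, with Km-level 10 uM D-luciferin and 10 uM ATP in 50 mM Tris acetate pH 7.5, 10 mM Mg acetate, 0.01% Tween-20, 0.05% BSA; 6-point qHTS titration about 60 µM downward; luminescence read.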
Further: nearly all actives have a fitted effect of over 55% in size.
Potency means the concentration at half of the fitted maximal effect; tags describe the fitted curve by direction and shape.
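Wherever activity change, negative = inhibition is given: plate controls were vehicle for no effect and reference inhibitor for full effect.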

**Q.** For `Cc1cccc(NC(=S)c2nc3ccccc3s2)c1`, which Potency is on record?
**A.** active: 3.01 µM

**Q.** With `O=C(CSc1nc(-c2ccc(F)cc2)cs1)NCCN1C(=O)CSC1=O` as the molecule, how does the Potency read?
**A.** inconclusive: 37.9 µM [inhibitor, partial curve, poor fit]

**Q.** For `C/C(=N\NC(=O)c1ccco1)c1ccc(NC(=O)c2ccccc2)cc1`, which Potency is on record?
**A.** inconclusive: 37.9 µM [inhibitor, single point]

**Q.** With `COCC[N+]1(C)CCCCC1` as the molecule, how does the “activity change, negative = inhibition” value read?
**A.** inactive: -1.77%

**Q.** Which Potency does the source give for `COc1cccc(CNc2cnc3ccccc3c2)c1O` here?
**A.** active: 2.39 µM

**Q.** How did the Potency turn out when `Cc1cc(/C=C(\C#N)C(=O)O)c(C)n1CCC(C)C` was run?
**A.** inconclusive: 37.9 µM [inhibitor, single point]

**Q.** With `CCn1cc(C(=O)NC(C)CCc2ccccc2)c(=O)c2cc(S(=O)(=O)N(C)C)ccc21` (centres undefined) as the molecule, how does the “activity change, negative = inhibition” value read?
**A.** inactive: 1.07%

**Q.** How did the “activity change, negative = inhibition” value turn out when `CC(C(=O)N1CCN(Cc2ccc3c(c2)OCO3)CC1)c1ccc([N+](=O)[O-])cc1` (centres undefined) was run?
**A.** inactive: 0.0856%

**Q.** How did the “activity change, negative = inhibition” value turn out when `OCC(O)CNC(=S)NC1CCCCC1` (centres undefined) was run?
**A.** inactive: -0.541%

**Q.** With `Cc1cc(Cl)ccc1OCCCC(=O)NCCc1nnc2ccccn12` as the molecule, how does the Potency read?
**A.** inconclusive: 37.9 µM [inhibitor, single point]

**Q.** How did the Potency turn out when `COc1ccc(C2=Nc3ccccc3NC(c3cccs3)=N2)cc1` was run?
**A.** inconclusive: 19 µM [inhibitor, partial curve, poor fit]

**Q.** Which Potency does the source give for `O=[N+]([O-])c1cccc(-c2noc(-c3ccco3)n2)c1` here?
**A.** active: 9.53 µM

**Q.** `C=CCNC(=O)Nc1ccc(Cl)cn1` was tested. Which Potency did it give?
**A.** inconclusive: 26.9 µM [inhibitor, partial curve, poor fit]

**Q.** For `CCCCN1C(=O)/C(=C/C=C2\SCCN2C)SC1=S`, which Potency is on record?
**A.** active: 13.5 µM

**Q.** Which Potency does the source give for `CCN(CC)S(=O)(=O)c1ccc(C)c(NC(=O)COC(=O)CNC(=O)c2ccc(C(C)(C)C)cc2)c1` here?
**A.** active: 0.536 µM

**Q.** For `Cc1ccccc1Cn1cc(S(=O)(=O)CC(=O)Nc2nccs2)c2ccccc21`, which Potency is on record?
**A.** inconclusive: 21.3 µM [inhibitor, single point]

**Q.** With `COc1ccc(C)cc1NC(=O)C(=O)NCC(c1cccnc1)N1CCc2ccccc21` (centres undefined) as the molecule, how does the “activity change, negative = inhibition” value read?
**A.** inactive: -17.7%

**Q.** For `COc1ccc(/C=N/Nc2cc(N(C)C)nc(N(C)C)n2)cc1`, which Potency is on record?
**A.** active: 15.1 µM

**Q.** For `CCCc1cc(=O)[nH]c(Nc2cc(C)ccc2OC)n1`, which “activity change, negative = inhibition” value is on record?
**A.** inactive: -1.14%

**Q.** With `COc1ccc(NC(=O)/C(C#N)=C\c2ccc(-c3cccc(C(=O)O)c3C)o2)cc1` as the molecule, how does the Potency read?
**A.** active: 8.49 µM

**Q.** How did the Potency turn out when `c1ccc2sc(Sc3ncnc4sccc34)nc2c1` was run?
**A.** active: 0.953 µM

**Q.** For `CC(C)(C)NC(=O)Cn1c(=O)n(CC(=O)NC(C)(C)C)c2ccccc21`, which “activity change, negative = inhibition” value is on record?
**A.** inactive: -1.25%

**Q.** Which “activity change, negative = inhibition” value does the source give for `CCc1ccc(NC(=O)CC2C(=O)N(c3cccc(OC)c3)C(=O)N2Cc2ccc(F)cc2)cc1` (centres undefined) here?
**A.** inactive: -1.87%

**Q.** Which Potency does the source give for `Cc1onc(C(=O)Nc2sc3c(c2C(N)=O)CCCC3)c1[N+](=O)[O-]` here?
**A.** inconclusive: 19 µM [inhibitor, partial curve]

**Q.** How did the “activity change, negative = inhibition” value turn out when `CN(CC1CCCN(CCc2ccc(Cl)cc2)C1)C(=O)CC(F)(F)F` (centres undefined) was run?
**A.** inactive: 0.863%

**Q.** For `Nc1ccccc1-c1nc2ccccc2[nH]c1=O`, which Potency is on record?
**A.** active: 23.9 µM

**Q.** How did the “activity change, negative = inhibition” value turn out when `C=CCNC(=S)N/N=C/c1ccc(-c2cc(Cl)ccc2Cl)o1` was run?
**A.** inactive: 1.96%

**Q.** `COc1ccc2oc(=N)c(C(=O)Nc3ccc(F)cc3)cc2c1` was tested. Which Potency did it give?
**A.** inconclusive: 1.69 µM [inhibitor, full curve]

**Q.** How did the Potency turn out when `N#C/C(=C\c1ccc(OCc2ccccc2)cc1)C(=O)Nc1ccc(C(=O)O)cc1` was run?
**A.** inconclusive: 21.3 µM [inhibitor, partial curve]

**Q.** How did the “activity change, negative = inhibition” value turn out when `COCCn1c(SCc2nc3ccccc3c(=O)[nH]2)nnc1-c1ccncc1` was run?
**A.** inactive: -0.805%

**Q.** Which “activity change, negative = inhibition” value does the source give for `CCCCc1ccc(-n2nc3cc(C)c(NC(=O)c4ccc(C#N)cc4F)cc3n2)cc1` here?
**A.** inactive: -1.55%

**Q.** Which Potency does the source give for `COc1cccc(OCCn2cc(/C=N/NC(=O)c3ccncc3)c3ccccc32)c1` here?
**A.** inconclusive: 37.9 µM [inhibitor, single point]

**Q.** For `CCn1cnc2cc(NCc3nc4ccccc4n3Cc3ccccc3)ccc21`, which Potency is on record?
**A.** active: 5.36 µM

**Q.** With `CCCCNC(=O)c1onc(CSc2ccc(Cl)cc2)c1C(=O)O` as the molecule, how does the Potency read?
**A.** inconclusive: 21.3 µM [inhibitor, single point]

**Q.** For `CCCCN(CC)CCCNC(=O)c1c(C)oc2ncnc(N3CCOCC3)c12`, which “activity change, negative = inhibition” value is on record?
**A.** inactive: -3.59%

**Q.** Which Potency does the source give for `O=C(Cn1c(SCc2ccccc2)nc2ccccc21)N1CCOCC1` here?
**A.** inconclusive: 26.9 µM [inhibitor, partial curve, poor fit]

**Q.** How did the Potency turn out when `Cc1cc(C)c(S(=O)(=O)Nc2ccnc(-c3cccnc3)n2)c(C)c1` was run?
**A.** inconclusive: 21.3 µM [inhibitor, partial curve]

**Q.** How did the “activity change, negative = inhibition” value turn out when `Cc1csc2ncnc(NCCc3ccccn3)c12` was run?
**A.** inactive: -15.1%

**Q.** Which Potency does the source give for `CCc1nn2c(=O)cc(COC(=O)c3cccc(NC(=O)CCc4ccccc4)c3)nc2s1` here?
**A.** inconclusive: 26.9 µM [inhibitor, partial curve, poor fit]

**Q.** Which Potency does the source give for `COc1c(O)cccc1-c1nnn(CCC(=O)OCC(=O)c2ccccc2)n1` here?
**A.** inconclusive: 23.9 µM [inhibitor, partial curve, poor fit]

**Q.** How did the “activity change, negative = inhibition” value turn out when `COc1ccccc1CC(=O)N1CCC(CCC(=O)NC2CC2)CC1` was run?
**A.** inactive: 2.28%

**Q.** `Oc1ccc2ccccc2c1N=Nc1ccccc1F` was tested. Which Potency did it give?
**A.** active: 16.9 µM

**Q.** Which Potency does the source give for `COc1ccc(-n2ncc3c(NCCCOC(C)C)ncnc32)cc1` here?
**A.** inconclusive: 37.9 µM [inhibitor, single point]

**Q.** Which Potency does the source give for `O=C(Nc1ccc(Cl)cc1)[C@@H]1[C@@H]2C(=O)N(c3cccc(F)c3)C(=O)[C@@H]2[C@H]2C=CC=NN21` here?
**A.** inconclusive: 37.9 µM [inhibitor, partial curve, poor fit]

**Q.** `O=C(Nc1ccncc1)C1CCN(S(=O)(=O)c2ccccc2C(F)(F)F)CC1` was tested. Which “activity change, negative = inhibition” value did it give?
**A.** inactive: -1.19%

**Q.** How did the Potency turn out when `N=C1/C(=C/c2ccc(-c3cccc(C(=O)O)c3)o2)C(=O)N=C2SC(CC(=O)N3CCOCC3)=NN12` was run?
**A.** inconclusive: 23.9 µM [inhibitor, single point]

**Q.** For `COc1ccc(OC)c(-n2c(Cn3c(-c4ccccn4)nc4ccccc43)n[nH]c2=S)c1`, which Potency is on record?
**A.** inconclusive: 26.9 µM [inhibitor, partial curve, poor fit]

**Q.** `CCc1nn(CC(=O)NC2CC2)c(=O)c2cc3c(OC)cccc3n12` was tested. Which “activity change, negative = inhibition” value did it give?
**A.** inactive: -3.48%

**Q.** Which “activity change, negative = inhibition” value does the source give for `CCCCNC(=O)C1CCCN(S(=O)(=O)CCC)C1` (centres undefined) here?
**A.** inactive: 3.25%

**Q.** Which Potency does the source give for `Cn1c(SCC(=O)Nc2ccc(N3CCOCC3)cc2)nnc1C1CC1` here?
**A.** inconclusive: 26.9 µM [inhibitor, single point]

**Q.** For `Cc1cccc(-c2noc(-c3ccno3)n2)c1`, which Potency is on record?
**A.** active: 21.3 µM

**Q.** `O=C(N/N=C/c1ccc2c(c1)OCO2)C(=O)Nc1cccc(Cl)c1` was tested. Which Potency did it give?
**A.** inconclusive: 12 µM [inhibitor, partial curve]

**Q.** How did the “activity change, negative = inhibition” value turn out when `COc1cc(O)c(C(CC(=O)N2CCN(c3ccccc3)CC2)c2ccc3c(c2)OCO3)c(OC)c1` (centres undefined) was run?
**A.** inactive: 0.0031%

**Q.** `Cc1c(C(=O)NCc2ccc(Cl)cc2)oc2ccc3c(c12)C(=O)CC(C)(C)O3` was tested. Which Potency did it give?
**A.** inconclusive: 6.01 µM [inhibitor, partial curve]

**Q.** Which Potency does the source give for `NC(=S)Nc1nccc(-c2cccs2)n1` here?
**A.** inconclusive: 10.7 µM [inhibitor, partial curve, poor fit]

**Q.** With `Cc1cccc(NC(=O)CN2C(=O)N/C(=C/c3cc(C)n(C(C)C)c3C)C2=O)c1` as the molecule, how does the Potency read?
**A.** inconclusive: 30.1 µM [inhibitor, partial curve, poor fit]

**Q.** `COc1ccc(-c2cc(C(=O)Nc3cc(Cl)ccc3O)no2)cc1` was tested. Which Potency did it give?
**A.** inconclusive: 6.75 µM [inhibitor, partial curve, poor fit]

**Q.** `O=C(c1ccc(Cl)cc1)[C@@H]1[C@@H]2C(=O)N(c3cccc4ccccc34)C(=O)[C@@H]2C2c3ccccc3C=NN21` (some centres undefined) was tested. Which “activity change, negative = inhibition” value did it give?
**A.** inactive: -2.92%

**Q.** With `C(=N\Nc1nc(-c2ccccc2)cs1)/c1ccncc1` as the molecule, how does the Potency read?
**A.** active: 10.7 µM

**Q.** For `CCOc1ccccc1Nc1ncnc2c1cnn2-c1ccc(C)cc1`, which Potency is on record?
**A.** active: 15.1 µM

**Q.** For `O=C1C/C(=C\c2c(F)cccc2Cl)N2CCC1CC2`, which “activity change, negative = inhibition” value is on record?
**A.** inactive: 4.67%

**Q.** For `C=CCNC(=S)N/N=C/c1ccc(C(F)(F)F)cc1`, which Potency is on record?
**A.** inconclusive: 21.3 µM [inhibitor, partial curve]

**Q.** How did the Potency turn out when `Cn1cccc1C(=O)C(=O)Nc1cc(Cl)cc(Cl)c1` was run?
**A.** inconclusive: 3.79 µM [inhibitor, partial curve, poor fit]

**Q.** For `CCc1cc(C(=O)O)c(NC(=O)/C=C/c2ccc(OC)c(OC)c2)s1`, which Potency is on record?
**A.** inconclusive: 33.8 µM [inhibitor, single point]

**Q.** How did the Potency turn out when `COc1ccc(CC(=O)Nc2nc3c(s2)CC(C)CC3)cc1` (centres undefined) was run?
**A.** inconclusive: 19 µM [inhibitor, partial curve]

**Q.** How did the Potency turn out when `Nc1c(C(=O)Nc2ccccc2)sc2nc(-c3cccnc3)ccc12` was run?
**A.** inconclusive: 10.7 µM [inhibitor, partial curve, poor fit]

**Q.** For `Cc1ccc(NC(=O)C2CCCN(S(=O)(=O)c3ccc4[nH]c(=O)ccc4c3)C2)cc1Cl` (centres undefined), which “activity change, negative = inhibition” value is on record?
**A.** inactive: -0.198%

**Q.** How did the Potency turn out when `N=C1/C(=C\c2ccc(OCc3ccccc3)cc2)C(=O)N=C2SC(N3CCCC3)=NN12` was run?
**A.** inconclusive: 21.3 µM [inhibitor, single point]

**Q.** Which Potency does the source give for `Cc1nc(C)c(-c2ccc(SCC(=O)Nc3ccccc3)nn2)s1` here?
**A.** inconclusive: 23.9 µM [inhibitor, partial curve, poor fit]

**Q.** For `Cc1cc(C)nc(NS(=O)(=O)c2ccc(N3C(=O)C4C5C=CC(C5)C4C3=O)cc2)n1` (centres undefined), which “activity change, negative = inhibition” value is on record?
**A.** inactive: -0.737%

**Q.** With `Cc1ccc(Nc2nc(C(=O)NCCCN3CCOCC3)cs2)cc1` as the molecule, how does the Potency read?
**A.** inconclusive: 37.9 µM [inhibitor, partial curve, poor fit]

**Q.** How did the Potency turn out when `COc1cc(SC)ccc1C(=O)Nc1cccc(C2OCCCO2)c1` was run?
**A.** active: 16.9 µM

**Q.** How did the Potency turn out when `O=C(N/N=C/c1cccc(O)c1)c1ccc(COc2cccc3cccnc23)cc1` was run?
**A.** active: 16.9 µM

**Q.** With `CCOc1ccc(NC(=O)Nc2ccc3c(c2)nc(C)n3C)cc1` as the molecule, how does the Potency read?
**A.** inconclusive: 16.9 µM [inhibitor, partial curve, poor fit]
